According to PubChem BioAssay (NCI):
Values joined by “and” are separate entries in the source; they are usually repeats but may differ in a detail not shown here. Equal entries are not always repeated.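 In this assay, cells in 96-well plates receive the compound at five concentrations for 48 hours. Endpoints are linearly interpolated between the surrounding concentrations. The concentration for 50% growth inhibition is given as GI50. TGI is the concentration that stops growth completely.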

These compounds were tested on NCI-H322M lung (assay: inhibition of tumour cell growth, NCI panel, 48 h).

SMILES	TGI	GI50
CC(=O)OC(C)c1cc2c(s1)C(=O)c1c(C(C)OC(C)=O)csc1C2=O (configuration not stated)	2.81 µM	
CN(C)c1ccc(/C=C/C(=O)O)cc1	> 100 µM	
COC12C=CC(C=C1C#N)CC2 (configuration not stated) (tested in a mixture with another compound)	> 100 µM	
C[n+]1c2ccccc2c(/C=N\NS(=O)(=O)c2ccc(Cl)cc2)c2ccccc21	> 100 µM	
COc1ccc(N=C2C(=Nc3ccc(OC)cc3)N(c3ccc(N(C)C)cc3)C(=S)N2c2ccc(OC)cc2)cc1	> 100 µM	
Cc1c(-c2nnc(-c3ccccc3)o2)c(=O)n(-c2ccccc2)n1C	> 100 µM	
CCOC(=O)C(C)(C)Oc1ccc2c(-c3ccc(Cl)cc3)c(-c3ccc(Cl)cc3)c(=O)oc2c1	> 100 µM	
O=C(C(Cl)=C(N1CCCCC1)N1CCCCC1)C(Cl)Cl	> 100 µM	
CN[C@@H](C)[C@@H](O)c1ccccc1	> 100 µM	
OCC(CCc1c[nH]c2ccccc12)c1c[nH]c2ccccc12 (configuration not stated)	34.1 µM	
CCOC(=O)C(=O)CC(=O)C1=C(c2ccccc2OC)CC(c2cccs2)=CC1=O	> 100 µM	
c1ccc(B2OCC(C3OB(c4ccccc4)OC4COB(c5ccccc5)OC43)O2)cc1 (configuration not stated)	> 100 µM	
Fc1ccc2c(c1)C1=C(CO2)C(c2ccc(Cl)cc2)NC(=S)N1 (configuration not stated)	38.9 µM	7.56 µM
CC1(C)CC([P+](c2ccccc2)(c2ccccc2)c2ccccc2)=NN1	> 100 µM	17.8 µM
COc1ccc(C2SCC(=O)N2NC(=O)C(C)Oc2ccccc2C)cc1 (configuration not stated)	> 100 µM	
N=c1oc2ccccc2cc1-c1nc2ccccc2c(=O)[nH]1	> 100 µM	
O=C(O)CCc1ccc2c(c1)CC1(Cc3ccccc3C1)C2	> 100 µM	
COc1c2ccsc2c(OC)c2ccsc12	> 100 µM	
COC(=O)c1ccccc1C1=C([N+](=O)[O-])C(c2ccccc2)C(C#N)=C(N)O1 (configuration not stated)	> 100 µM	
NCCCN1CCN(CCCNc2nc3ccccc3c3[nH]c4ccccc4c23)CC1	5.84 µM	0.437 µM
N#C/C(=C\c1c(-c2ccccc2)[nH]c2ccccc12)C(=O)c1ccccc1	> 100 µM	3.82 µM
O=C(Nc1ccc(Br)cc1)C(=O)C(C(=O)c1ccccc1F)C1OC(=O)c2ccccc21 (configuration not stated)	81.4 µM	
CCCCCCCCCCCCCCCCCCOc1ccccc1CC(=O)NCC[N+](C)(C)C	> 100 µM	10.2 µM

SMILES	TGI	GI50
O=C(N/C(=C\c1ccc(/C=C(\NC(=O)c2ccccc2)c2nc3ccccc3s2)cc1)c1nc2ccccc2s1)c1ccccc1	25.4 µM	
CC(=O)OCC12CCC3C4(C)CCCC(C)(C)C4CCC3(C)C1CC(C1=CC(=O)OC1O)O2 (configuration not stated)	3.63 µM	
Cn1cnc2c(F)c(Nc3ccc(Br)cc3F)c(C(=O)NOCCO)cc21	> 100 µM	0.245 µM and 0.287 µM
O=C(CNc1ccc2c(=S)c3ccccc3[nH]c2c1)Nc1ccccc1-c1ccccc1NC(=O)CNc1ccc2c(=S)c3ccccc3[nH]c2c1	51.1 µM	
Cc1ccc(S(=O)(=O)n2ccc(-c3ccc4ccn(S(=O)(=O)c5ccc(C)cc5)c4c3)c2)cc1	> 100 µM	
CN1C[C@@H]2Cn3c(c(C4=C(c5cn(C)c6ccccc56)C(=O)NC4=O)c4ccccc43)C[C@H]2C1	12 µM and 15 µM	4.96 µM and 4.6 µM
CC(=O)/C=C1\CC(=O)Nc2ccccc2N1	> 100 µM	
O=C(Nc1nc2ccc([N+](=O)[O-])cc2s1)C(=O)C(C(=O)c1ccncc1)C1OC(=O)c2ccccc21 (configuration not stated)	> 100 µM	
Clc1ccc(C2CC(c3cccc(Nc4ccncc4)c3)=NN2c2cc(Cl)cc(Cl)c2)cc1 (configuration not stated)	3.15 µM	1.62 µM
Cn1c(=O)c(C(=O)NC(=O)NCCCCCOC(=O)CCCCCCCCCCC(=O)OCCCCCNC(=O)NC(=O)c2cn(Cc3ccccc3)c(=O)n(C)c2=O)cn(Cc2ccccc2)c1=O	> 100 µM	
CCN(CC)CCn1c2ccc(OC)cc2c2sc3cc(OC)ccc3c(=O)c21	4.07 µM	1.59 µM
O=S(=O)(NC1=NCCN1C(=S)SN1CCn2c1nsc2=S)c1ccccc1Cl	77.7 µM	24.2 µM
Cc1nc2c(N3CCCC3)nc(N3CCNCC3)nc2nc1NCc1ccccc1	14.7 µM and 17.7 µM	6.24 µM
CC(C)C[C@H](NC(=O)[C@H](Cc1cccc2ccccc12)NS(=O)(=O)c1cccc2cccnc12)B(O)O	14.1 µM	0.722 µM
CS(=O)(=O)N(CCC#N)c1ccc(C=O)cc1	> 100 µM	
CCCCCCCCCCCCCCCCCC(=O)Nc1ccn(C2CCC(COP(=O)(O)O)O2)c(=O)n1 (configuration not stated)	> 100 µM	
COc1cc(C2CC(=O)Nc3c2ccc2ccccc32)cc(Br)c1OC (configuration not stated)	> 100 µM	0.693 µM
COC(=O)NC(Cc1ccccc1)NC(C)=O (configuration not stated)	> 100 µM	
Cc1ccc(S(=O)(=O)N/N=C2/CCC(C(C)(C)C)CC2Br)cc1 (configuration not stated)	> 100 µM	
CC(=O)OCCCCn1cc(Cn2ccc(=O)n(Cc3cn(CCCCOC(C)=O)nn3)c2=O)nn1	> 100 µM	
COc1c(C)c(C/C=C(\C)CC/C=C(\C)CC/C=C(\C)CCC=C(C)C)c(OC)c2ccccc12	> 100 µM	
Nc1c(C(=O)N/N=C/c2ccc(-c3cc(Cl)c(Cl)cc3Cl)o2)cnn1-c1ccnc2c(C(F)(F)F)cccc12	> 100 µM	4.34 µM
C=C1C(=O)OC2/C=C(\CO)CC/C=C(\CO)CC(OC(=O)C(C)C)C12 (configuration not stated)	> 100 µM	

SMILES	TGI	GI50
CC(=O)OC1CCC2C(=CCC3C2(C)C(=O)CC2(C)C(C4(C)OC(C(C)C)=CC4=O)C(O)CC32C)C1(C)C (configuration not stated)	> 100 µM	
c1csc(-c2ccsc2-c2ccsc2)c1	> 100 µM	
N#Cc1nc2c(S(=O)(=O)c3ccccc3)c(N)n(Cc3ccc(Cl)cc3)c2nc1C#N	28.9 µM	9.99 µM
O=C1C(=O)N(c2nccs2)C(=O)C(=O)C1c1nc2ccccc2s1	> 100 µM	
Nc1ccc2ccc(-c3ccc[nH]3)nc2n1	> 100 µM	
COCC12CCC(OC)C34C5CC6(O)C(OC)CC(OC(C)=O)(C5C6OC(=O)c5ccccc5)C(C(OC)C13)C4N(C)C2 (configuration not stated)	> 100 µM	
CCCN(CCC)C1CCc2c(ccc3cc[nH]c23)C1 (configuration not stated)	> 100 µM	
CC(=O)N(C(C)=O)n1c(Cc2ccc(C)cc2)nn(C(C)=O)c1=O	> 100 µM	
CCOC(=O)C(=CN1CCNC1=S)C(=O)OCC	> 100 µM	
CCOc1ccc(/C=C2\NC(=S)N(/C=C3\C(=O)Oc4ccccc4C3=O)C2=O)cc1	65.9 µM	
CC(C)C(=O)[O-].CC(C)C(=O)[O-].N.N.N.N.[Co+3].[O-][Cl+3]([O-])([O-])[O-]	> 100 µM	> 100 µM
Cc1ccc2nc(-c3ccc(N)c4ccccc34)[nH]c2c1	25.6 µM	0.405 µM
COc1cc(OC2OC(COC(=O)c3cc(O)c(O)c(O)c3)C(O)C(O)C2O)ccc1O (configuration not stated)	> 100 µM	
CC1CCCc2c1c1ccc3c(O)cccc3c1oc2=O (configuration not stated)	> 100 µM	
COc1ccc(CNc2nc3cc(C(F)(F)F)ccc3nc2-c2ccccc2)cc1OC	> 100 µM	
CCN(CC)CCOC(=O)Cc1cccc2c(=O)cc(-c3ccccc3)oc12	62.5 µM and > 107 µM	> 71.5 µM
Nc1nccc2c1ncn2C1OC(CO)C(O)C1O (configuration not stated)	> 100 µM	> 100 µM
Cc1ccccc1C(=O)Oc1ccc(OCc2ccccc2)cc1	> 100 µM	
N[C@H](CCC(=O)NCP(=O)(O)O)C(=O)O	> 100 µM	
CC(=O)OC(C)(C)CCC(=O)[C@](C)(O)[C@H]1[C@H](O)C[C@@]2(C)[C@@H]3CC=C4C(C)=C(OC5OC(CO)C(O)C(O)C5O)C(=O)C[C@@H]4[C@]3(C)C(=O)C[C@]12C (some centres not stated)	> 100 µM	
NS(=O)(=O)c1ccc(-n2ncc3c(Nc4ccccc4)ncnc32)cc1	> 100 µM	31.5 µM
CN(C)CC1CCC/C(=C\c2ccc(OC(=O)/C=C/c3ccc(Cl)c(Cl)c3)cc2)C1=O (configuration not stated)	> 66.9 µM	
COc1cccc(C2SC(C)C(=O)N2CCc2cccs2)c1 (configuration not stated)	16.2 µM	2.75 µM

SMILES	TGI	GI50
Cc1ccc(Nc2cc(C)nc(NCCCNc3ccnc4cc(Cl)ccc34)n2)cc1	3.75 µM	1.55 µM
Nc1ccc(C(OC(=O)c2cc3ccccc3c(Cc3c(O)c(C(=O)OC(c4ccc(N)cc4)(c4ccc(N)cc4)c4ccc(N)cc4)cc4ccccc34)c2O)(c2ccc(N)cc2)c2ccc(N)cc2)cc1	50.5 µM	0.855 µM
S=c1sc2cscc2s1	36.6 µM	
COc1cccc(N=N/C(=N\NC(=O)c2cc(Br)ccc2O)c2ccc(N(CCC#N)CCC#N)cc2OC)c1	> 150 µg/mL	89.1 µg/mL
CC(C)C[C@H](NC(=O)CCn1ccc2ncccc2c1=O)B(O)O	> 100 µM	> 73.9 µM
COc1cc(NC(=O)NCc2ccco2)ccc1-c1ccc(NC(=O)NCc2ccco2)cc1OC	8.54 µM	2.25 µM
NCc1c(C(N)=O)ncn1Cc1ccccc1	> 100 µM	
CSc1ccc(SC2c3ccc(C)cc3Oc3nc(N)c(C#N)c(N)c32)cc1 (configuration not stated)	3.03 µM	1.66 µM
FC(F)(F)c1cccc2c(SCCc3n[nH]c(=S)o3)ccnc12	> 100 µM	> 100 µM
CC1[C@@H]2CC=C3[C@H]4CCC5Cc6nc7c(nc6C[C@@]5(C)C4(O)CC(=O)[C@]32CO[C@]12OC(C)(C)CC2O)CC1CC[C@@H]2C3=C[C@H]4O[C@@]5(O[C@@](C)(CO)C[C@@H]5O)C(C)[C@@]4(O)[C@]3(C)[C@@H](O)CC2[C@]1(C)C7 (some centres not stated)	0.652 µM	0.0283 µM
O=[N+]([O-])c1ccc(N2N=C(c3ccc4ccccc4c3O)CC2c2ccc(Cl)cc2)c([N+](=O)[O-])c1 (configuration not stated)	> 100 µM	
CN(C)CCSCCO	> 100 µM	
CCOC(=O)N1C(c2ccccc2)C=CC(c2ccccc2)N1C(=O)OCC (configuration not stated)	> 100 µM	
COC12CCC(C(C(=O)c3ccccc3)=C1C(=O)c1ccccc1)C(O)C2 (configuration not stated)	> 100 µM	
O=C(N/N=C/c1ccc(Cl)cc1Cl)c1ccc2nc(-c3ccc(Cl)cc3)[nH]c2c1	5.26 µM	2.15 µM
Cc1cc(N(CCCNc2ccnc3cc(Cl)ccc23)Cc2ccc3c(c2)OCO3)nc(N2CCCCC2)n1	8.22 µM	2.42 µM
NC(CC(O)(c1ccccc1)c1ccccc1)c1ccccc1S (configuration not stated)	34.5 µM	
Clc1ccc(CNc2nccc(-c3cnn4ncccc34)n2)cc1	> 22.4 µM	9.29 µM
Cc1cc(N(CCC#N)CCC#N)ccc1/C=C1\SC(=S)NC1=O	> 100 µM	
O=c1oc2c3ccc4cnccc4c3[nH]c2c2ccccc12	> 100 µM	56.7 µM
